Assay results reported in the supplement of paper PMC10126150.
Values marked as one replicate rest on one cluster of the flow cell; about a third of the high ones do not repeat.

tested on: ATP; assay: switch fluorescence ratio, 500 uM ATP over buffer (Cy3 cluster intensity, sum of 5 cycles each) (fold (ratio)); higher = stronger signal-on switching upon ATP binding; sequences stand for … in TCGTCGGCAGCGTCAGATGTGTATAAGAGACAGTTTTTTTTTTTTTTTTTTTTTTTTT…TC; settings: aptamer strand: ATP DNA aptamer (quencher-CACCTGGGGGAGTATTGCGGAGGAAGG + anchor), 100 nM annealed; ATP concentration: 500 uM; one replicate
How it was run: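 After annealing to 100 nM quencher-labelled ATP aptamer, Cy3-labelled switching-strand clusters on a modified Illumina MiSeq flow-cell were imaged in selection buffer. A second image followed after 15 min with 500 uM ATP at 22 °C, and five such buffer/ATP cycles were done, each separated by NaOH stripping and re-annealing. The fluorescence ratio, averaged per switch-domain sequence, is summed target-cycle over summed buffer-cycle Cy3 intensity per cluster, with clusters outside 100-1000 RFU excluded.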
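Further: ATP exposure 15 min at 22 °C before imaging.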

Sequence	switch fluorescence ratio
TACGGCGGC	0.992
TACGGGCCCA	0.997
TACGGGTACA	1.16
TACGGGTTGT	1.02
TACGGTTAGT	1.04
TACGGTTGC	2.12
TACGGTTTTG	1.02
TACGTAAAAT	1.04
TACGTAAAGC	1.44
TACGTAGCTT	2.18
TACGTAGGAT	1.07
TACGTATGTT	1.03
TACGTCCTGA	1.02
TACGTCGACT	1.04
TACGTCTGGC	0.992
TACGTTACAG	1.42
TACGTTAGGA	0.996
TACGTTCTCA	0.977
TACGTTCTGG	1.03
TACGTTGGTC	1.02
TACGTTTTTG	1.17
TACTAATAAA	1.04
TACTACTC	1.08
TACTAGACG	1.14
TACTATAATG	1.02
TACTATCAGG	1.23

Sequence	switch fluorescence ratio
TACTCACATT	1.27
TACTCAGATG	1.06
TACTCATTCT	1.02
TACTCGCTAA	1.28
TACTCGTTTT	1.04
TACTCTCCTG	1.11
TACTGAAGAT	1.03
TACTGAGGCT	0.988
TACTGCTCGA	1.04
TACTGCTTGG	1.04
TACTGGACAC	1.21
TACTGTCGGT	0.999
TACTGTTA	1.06
TACTTATACT	1.08
TACTTGCAGT	1
TACTTGGGAT	1.04
TACTTGTGAA	1.04
TACTTTGGTG	1.03
TACTTTTCAT	0.973
TACTTTTGCC	1.1
TAGAAAAGA	1.02
TAGAAAGGAC	1.84
TAGAAAGGAG	0.968
TAGAAAGGT	1.06
TAGAAAGGTG	1.22
TAGAACGATC	0.966

Sequence	switch fluorescence ratio
TAGAACTAGC	0.987
TAGAAGAAAT	0.952
TAGAAGAGCT	1
TAGAATATTT	1.02
TAGAATCGAC	0.994
TAGAATGAGC	1.01
TAGAATTGAA	1.01
TAGACGGCAC	1.8
TAGACTCCAG	1
TAGACTTCTT	0.973
TAGAGAAAGC	1.02
TAGAGAAATG	0.959
TAGAGATACT	1
TAGAGCCGCA	1.01
TAGAGCGTTC	1
TAGAGGGAAC	0.928
TAGAGGGAGA	0.982
TAGAGGTTCC	1
TAGAGTAGAA	0.967
TAGAGTGGCT	0.98
TAGATAAGTA	1.02
TAGATACAGC	0.999
TAGATACTT	1.12
TAGATAGTCG	1.02
TAGATATGTG	0.977
TAGATCTAGG	0.995

Sequence	switch fluorescence ratio
TAGATGAGAT	1.01
TAGATGATGA	0.989
TAGATGCTGG	0.988
TAGATGTG	1.01
TAGATTTAAA	0.968
TAGATTTAC	0.98
TAGCAAGAGC	1.13
TAGCACCCTA	1.06
TAGCATTGA	1.01
TAGCCACTAC	1.75
TAGCCAGCGC	1.09
TAGCCCGGTA	0.998
TAGCCGGATT	1.11
TAGCCGGCTT	0.993
TAGCCTCTGT	1.02
TAGCGAGGGC	1.04
TAGCGCGTGC	0.962
TAGCGGAGAC	1.07
TAGCTAGAGG	0.992
TAGCTAGCAC	1.07
TAGCTCGGAC	1.01
TAGCTCGTGT	1.03
TAGCTCTGAG	1.02
TAGCTGGACC	0.992
TAGCTGTAGG	0.964
TAGGAATAAT	0.962

Sequence	switch fluorescence ratio
TAGGAGGACG	1.07
TAGGAGTACT	1.02
TAGGATATGC	0.998
TAGGATCCTA	1.01
TAGGATCGG	1.02
TAGGCAAAG	1.12
TAGGCAACGT	0.984
TAGGCACTGT	0.967
TAGGCATGAG	1.03
TAGGCATGGA	1
TAGGCCCATA	1.05
TAGGCGCATA	1.07
TAGGCGGATC	1.06
TAGGCTCCAG	1.05
TAGGCTCCGG	0.99
TAGGCTGACC	0.962
TAGGCTTCGC	0.949
TAGGGAAACA	0.999
TAGGGAGATT	0.989
TAGGGATACT	1.01
TAGGGATTC	1.02
TAGGGCACGT	1.06
TAGGGCGA	0.968
TAGGGCGATA	1.08
TAGGGGCGAA	0.969
TAGGGTAATC	1.13

Sequence	switch fluorescence ratio
TAGGGTGTAG	0.951
TAGGTACGTC	0.987
TAGGTACTTA	0.986
TAGGTAGCTC	1.02
TAGGTAGGAT	0.976
TAGGTATAGG	0.974
TAGGTCGGG	0.984
TAGGTGGATC	1.02
TAGGTGGGAC	0.983
TAGGTTACAG	1.02
TAGGTTACTC	1.06
TAGTAACTAG	0.978
TAGTAACTAT	1.01
TAGTAAGACA	1.03
TAGTAATGT	1.04
TAGTAATTAT	1.03
TAGTACGTAG	1.06
TAGTACTTAT	1.03
TAGTATAATG	0.996
TAGTATATG	0.948
TAGTCAACAA	1.01
TAGTCAAGTG	0.991
TAGTCAGAGC	1.03
TAGTCGATCG	0.993
TAGTCGGACA	0.973
TAGTCGGGTG	1.07

Sequence	switch fluorescence ratio
TAGTCGGTTC	0.952
TAGTCTACT	1.05
TAGTGAGTTC	0.959
TAGTGCAATT	1.04
TAGTGCCGAG	0.995
TAGTGCGTGG	1.02
TAGTGCGTTC	0.995
TAGTGGGGG	0.984
TAGTGGTAGG	1.08
TAGTGGTGTG	1.02
TAGTGTACCC	1.07
TAGTTAATCC	1.04
TAGTTAGGCT	0.944
TAGTTATGGC	0.989
TAGTTGATCA	1.01
TAGTTTCATT	1
TAGTTTGGTG	1.02
TATAAAGTGA	1.05
TATAAATCTG	0.925
TATAAATGA	1.02
TATAACCATC	1.02
TATAAGATC	0.954
TATAAGCGCA	1.02
TATAAGGCAT	0.964
TATAAGTGGG	1.02
TATAATCGT	0.995

Sequence	switch fluorescence ratio
TATAATCTCG	0.998
TATAATGGGG	0.983
TATAATGTAG	1.02
TATAATTAAA	1.07
TATACAGTC	1.05
TATACCACCG	1.12
TATACCGAT	1.01
TATACGGAAC	1.33
TATACTCATG	0.992
TATAGACGGT	0.951
TATAGCGCAT	1.04
TATAGCTATG	0.998
TATAGCTGAA	0.988
TATAGCTTAA	0.978
TATAGGATCA	1.03
TATAGGGCTG	1.06
TATAGTCCC	1.04
TATAGTGTTT	1.02
TATATACGTA	1.12
